Data reported in PMC6919601, “Identification of Plasmodium dipeptidyl aminopeptidase allosteric inhibitors by high throughput screening” (PLoS ONE, 2019).
Hit rate of the full screen: of about 110,000 compounds, about 230 (0.21%) showed an effect of 50% or more. Some of the results follow.

What follows are molecules tested against DPAP1 (Plasmodium falciparum, UniProt Q8IIJ9) (assay: primary screen, percent inhibition; read by cleavage of a fluorogenic dipeptide substrate; higher = more effect of the substance).
Sequence of DPAP1 (Q8IIJ9 whole entry, looked up): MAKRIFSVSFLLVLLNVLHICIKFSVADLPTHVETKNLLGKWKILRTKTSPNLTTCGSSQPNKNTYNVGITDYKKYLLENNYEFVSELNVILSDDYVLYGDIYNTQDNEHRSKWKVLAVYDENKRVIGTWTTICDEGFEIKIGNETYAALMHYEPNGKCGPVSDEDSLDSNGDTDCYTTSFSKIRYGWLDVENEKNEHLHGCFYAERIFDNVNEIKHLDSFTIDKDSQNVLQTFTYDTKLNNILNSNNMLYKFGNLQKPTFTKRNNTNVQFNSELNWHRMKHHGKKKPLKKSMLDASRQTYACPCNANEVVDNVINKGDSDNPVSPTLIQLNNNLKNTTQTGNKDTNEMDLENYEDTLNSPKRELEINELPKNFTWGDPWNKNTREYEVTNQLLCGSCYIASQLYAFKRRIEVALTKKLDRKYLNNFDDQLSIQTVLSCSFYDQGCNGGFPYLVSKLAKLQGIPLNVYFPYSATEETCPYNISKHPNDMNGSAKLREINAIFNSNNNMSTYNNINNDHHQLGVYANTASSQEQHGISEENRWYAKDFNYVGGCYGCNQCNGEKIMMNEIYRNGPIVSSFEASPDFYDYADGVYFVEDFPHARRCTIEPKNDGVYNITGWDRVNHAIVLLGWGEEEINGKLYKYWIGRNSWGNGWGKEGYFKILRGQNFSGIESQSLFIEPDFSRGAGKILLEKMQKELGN
Design: species or system P. falciparum D10 trophozoite lysates; single well
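Note: 30 min substrate incubation versus DMSO and 10 µM JCP410 controls.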

SMILES | % Inhibition @ 10 uM
O=C(c1cnn(-c2ccccc2)c1-n1cccc1)N1CCCC(C(=O)N2CCC3(CC2)OCCO3)C1 (stereo not drawn) | 1.38%
CC1(C)CC(=O)C2=C(C1)c1c(ccc3ccccc13)NC2c1ccccc1F (stereo not drawn) | -8.03%
O=C(CN1CCN(Cc2ccccc2Cl)C1=O)NCC1CCCO1 (stereo not drawn) | -2.99%
CCOc1ccc(CCNC(=O)c2cncs2)cc1OCC | -1.05%
COc1cc(OC)cc(C(=O)Nc2nc3c(C)cccc3s2)c1 | -4.63%
Cc1ccccc1Cn1cc(NC(=O)c2ccccc2Br)cn1 | -2.03%
CCN1CCCC1CNC(=O)c1cnn(-c2ccc(C)cc2)c1C1CCN(C(=O)OC(C)(C)C)CC1 (stereo not drawn) | 8.68%
Cc1cccc(-c2nc(CS(=O)CC(=O)NCc3ccccc3Cl)c(C)o2)c1 (stereo not drawn) | -4.71%
Cn1c(=O)c2c(ncn2CC(=O)NC(c2ccccc2)c2ccccc2)n(C)c1=O | -4.68%
O=C1C2C(C(=O)N1c1ccc(Cl)cc1)C1C=CC2C12CC2c1ccccc1 (stereo not drawn) | -2.65%
COc1ccc2oc(=O)c(C(=O)N3CCN(C)CC3)cc2c1 | -0.48%
COc1ccccc1/C=C/C=C1\N=C(c2ccc(C)cc2)OC1=O | 6.67%
Cc1[nH]c2ccc(Br)cc2c1CCN1C(=O)OC(C)(C)C1(C)O (stereo not drawn) | -2.54%
O=c1c(Oc2ccc3ccccc3c2)c(C(F)(F)F)oc2c(CN3CCOCC3)c(O)ccc12 | 2.36%
CC(CNc1nc2c(-c3cccc(F)c3)nnn2c2ccccc12)c1ccccc1 (stereo not drawn) | -4.69%
O=C(NCc1ccc2c(c1)OCO2)c1ccc(CS(=O)(=O)c2ccc(Br)cc2)o1 | 0.458%
CN1C2=NCCCN2C(=O)c2ccccc21 | -3.44%
N=C(NOC(=O)COc1ccccc1)c1ccccn1 | -3.06%
Cc1cccc2sc(NC(=O)CCN3C(=S)NC(C)(C)CC3C)nc12 (stereo not drawn) | -4.23%
O=C1c2ccccc2C(=O)N1CSc1ccccn1 | -6.59%
COC(=O)c1cn(C(=O)CCc2ccccc2)c2ccccc12 | -2.65%
O=C(O)c1cccc(COCC(F)(F)F)c1 | -3.13%
CCc1nn(CC(=O)N2CCc3ccccc3C2)c(=O)c2cc3occc3n12 | -5.63%
Cc1c(C2C(C#N)=C(N)OC3=C2C(=O)CCC3)cnn1C (stereo not drawn) | -0.105%
O=C(Nc1ccc(OCc2ccccc2)cc1)C1CCCO1 (stereo not drawn) | -1.6%

SMILES | % Inhibition @ 10 uM
N#Cc1c(NC(=O)CSc2ncccn2)sc2c1CCC2 | 11.3%
CCN(CC)CCSc1nnc(Nc2ccccc2)n1-c1ccccc1 | -2.59%
O=S(=O)(c1cccc(Cl)c1)N1CCN(Cc2ccc3c(c2)OCO3)CC1 | -10.2%
Cc1ccc(Cl)cc1-n1ncc2c(N3CCCC3)ncnc21 | 8.79%
CCCCOc1ccc(C(=O)NC(Cc2ccccc2)C(=O)NC(CCSC)C(=O)O)cc1 (stereo not drawn) | 1.76%
Cc1c(C(=O)N2CCCCC2)sc(NC(=O)C(C(F)(F)F)C(F)(F)F)c1C#N | 3.05%
O=C1C2C3C=CC(C2C(=O)N1Cc1ccc(F)cc1)C1C(=O)N(Cc2ccc(F)cc2)C(=O)C31 (stereo not drawn) | -3.19%
COc1ccc(-c2csc(-n3nc(C)c(C(c4ccccc4)C(C#N)C(N)=O)c3O)n2)cc1 (stereo not drawn) | -8.63%
CCOc1ccccc1N1CCN(Cc2cccc(C(F)(F)F)c2)CC1 | 3.16%
CC1CCN(CCCNC(=O)c2cc3c(Cl)nc4ccccc4c3s2)CC1 | 10.2%
CCOc1ccc(NC(=O)c2ccc(-c3ccccc3)cc2)cc1 | -1.6%
O=C(c1ccc(Cl)c(Cl)c1)N1CCOCC1 | 0.177%
COc1ccc2ccccc2c1/C=C/C(=O)c1ccncc1 | 4.57%
COc1ccc(C2CC(=O)N3CN(CCCc4ccccc4)CSC3=C2C#N)cc1OC (stereo not drawn) | 30.5%
C=Cc1ccc(Cn2c(C)c(CNC3CCCCC3)c(C(=O)O)c2C)cc1 | -0.23%
OCCCNc1ncnc2sc3c(c12)CCCC3 | 0.774%
CC(=O)c1c(C)oc2ccc(N(C(C)=O)S(=O)(=O)c3c(C)cc(C)cc3C)cc12 | 3.04%
COc1ccc(C2C3=C(O)CC(C)(C)CC3=Nc3nc(C(F)(F)F)nn32)cc1OC (stereo not drawn) | -1.62%
CCN(CC)CCCNC(=O)Cn1nc(C)c2c(C)n(-c3ccccc3)nc2c1=O | 3.16%
Cc1c(CNCCc2ccccc2)c(C(=O)O)c(C)n1Cc1c(F)cccc1Cl | -0.23%
O=C(Cn1c(=O)sc2ccccc21)Nc1cccc(C(F)(F)F)c1 | 2.6%
NC(=O)c1c(NC(=O)c2cccs2)sc2c1CCCCC2 | 2.92%
Cc1ccn2c(NC(=O)c3ccccc3)c(-c3ccccc3)nc2c1 | 11.8%
CCc1c(O)n(C2CCCCC2)c(SCC(=O)N2CCCCC2)nc1=O | 1.9%
CC(C)(C)c1ccc(C(=O)O/N=C(\N)Cc2ccc(Cl)cc2)cc1 | 1.13%

SMILES | % Inhibition @ 10 uM
COc1ccccc1/C=C(\NC(=O)c1ccc(C)cc1)C(=O)Nc1ccccc1OC | 2.36%
N#CC1(NC(=O)[C@H](Cc2cc(Cl)c(O)c(Cl)c2)NC(=O)c2ccc(-c3ccc(C(F)(F)F)cc3)cc2)CC1 | -4.72%
O=C(COc1ccc(Cl)cc1)Nc1cccc(NC(=O)COc2ccc(Cl)cc2)n1 | -4.63%
CN(Cc1ccccc1)c1oc(/C=C/c2cccs2)nc1C#N | -5.33%
CCCCNC(=O)C1CC(=O)N(CCc2ccc(C)cc2)C1 (stereo not drawn) | -3.58%
CCOC(=O)c1c(NC(=O)OC)sc2c1CCCC2 | 6.89%
NC(=O)c1cc(S(=O)(=O)Nc2ccccc2Cl)ccc1O | -8.33%
Cc1ccccc1/N=C/C1=C(O)CC(c2ccccc2)CC1=O (stereo not drawn) | -4.12%
O=C1c2oc3ccccc3c(=O)c2C(c2ccccc2F)N1c1ccccn1 (stereo not drawn) | 3.25%
COc1ccc(CNC(=O)C(=O)NCCc2ccc(OC)c(OC)c2)cc1 | 6.54%
COc1ccc(C2=CC(c3ccccc3OC(F)F)n3nnnc3N2)cc1 (stereo not drawn) | 1.73%
CC(=O)c1cccc(NC(=O)C2c3ccccc3Oc3ccccc32)c1 | -2.53%
CC(C)CC(=O)Nc1nnc(S(=O)(=O)N(C)Cc2ccccc2)s1 | -2.48%
CCN1C(=O)CC(C(=O)Nc2ccccc2F)S/C1=N\c1ccc(OC)cc1 (stereo not drawn) | -1.42%
CCS(=O)(=O)C1=NN2C(=N)/C(=C\c3ccc(OCc4ccccc4)c(OC)c3)C(=O)N=C2S1 | 5.1%
CCOC(=O)N1CCN(c2c(NCCCN3CCN(C4CCCCC4)CC3)c(=O)c2=O)CC1 | -1.44%
O=C1c2ccccc2C(=O)c2cc(S(=O)(=O)N(CCO)CCO)ccc21 | -1.18%
OC1(CC#CCN2CCCC2)c2ccccc2-c2ccccc21 | -6.29%
O=C(Nc1cccc(Cl)c1)c1ccccc1C(=O)Nc1cccc(Cl)c1 | -0.507%
CCN1C(=O)/C(=C/c2ccc(C)s2)S/C1=N/c1ccc(OC)cc1 | 2.53%
O[C@]12CCCC[C@@H]1[C@@H](c1ccc(Cl)cc1Cl)NCC2 | -0.0372%
CN(C)CCNC(=O)c1ccc2c(c1)sc1nc(-c3ccc(F)cc3)cn12 | 3.8%
CNC(=O)CCCc1nnc2n(CCC(C)C)c(=O)c3sccc3n12 | -3.88%
Cc1occc1C(=O)O/N=C(\N)c1ccccc1 | 2.17%
CCOC(=O)N1CCC(NC(=O)c2cc3cc4ccc(C)cc4nc3o2)CC1 | -1.54%

SMILES | % Inhibition @ 10 uM
O=C1c2ccccc2C(=O)N1CNc1ccc(Cl)c(Cl)c1 | -1.17%
COc1ccccc1NC(=S)NC(=O)c1ccc(F)cc1 | 1.35%
CCN(CC)c1ccc(NC(=O)c2ccco2)cc1 | -4.03%
Cc1oc(-c2ccc(C(=O)N3CCOCC3)cc2)nc1COc1ccccc1 | -5.18%
O=C(O)c1ccccc1C(=O)Nc1ccccc1O | -0.0372%
O=C1CCC(NC(=O)OCc2ccccc2)(C(=O)O)O1 (stereo not drawn) | 13.3%
CCCN(CCC)c1ccc(C=C2C(=O)NC(=S)NC2=O)cc1 | 12.1%
CCN(CC)c1ccc(Nc2snc3c2c(=O)n(C)c(=O)n3C)cc1 | 1.35%
CCCNC(=O)C1CCCN(c2ncnc3onc(C)c23)C1 (stereo not drawn) | 2.01%
CCCCCCSc1nnc2nc(C)cc(C)n12 | 2.31%
CCOCCCNC(=O)NC(C)c1c(-n2cccc2)sc2c1CCCC2 (stereo not drawn) | -2.88%
COC(=O)c1cc2occc2[nH]1 | -0.406%
O=C(NCCOc1ccccc1)c1ccccc1NC(=O)c1ccccc1C(F)(F)F | -2.09%
CCOc1ccccc1CN1CCN(c2ccccc2F)CC1 | 5.37%
Cc1ccc(-c2c(C(=O)N3CCCCC3C)oc(=O)c3ccccc23)cc1 (stereo not drawn) | -1.54%
Cc1ccc(S(=O)Cc2nc(-c3ccc(C(=O)NCCc4ccccc4)cc3)oc2C)cc1 (stereo not drawn) | -6.5%
COc1cccc(NC(=O)CN(c2c(C)cccc2C)S(C)(=O)=O)c1 | 0.214%
Cc1cc(Cl)ccc1OCC(=O)Nc1ccc(C(N)=O)cc1 | -4.66%
CCc1ccc(S(=O)(=O)c2nnn3c2nc(NCc2ccc(F)cc2)c2sccc23)cc1 | -7.14%
CCCNC(=O)c1nc2ncc(Br)cn2n1 | -2.36%
CCN1CCC(C#N)(NC(=O)[C@H](Cc2c(F)cc(OC)cc2F)NC(=O)c2ccc(-c3ccccc3Cl)nc2)CC1 | -1.7%
O=C1CC2CS(=O)(=O)CC2N1c1cccc(C(F)(F)F)c1 (stereo not drawn) | -1.28%
CCOc1ccc(C2CC(c3ccc(OC(F)F)cc3)n3nnnc3N2)cc1Cl (stereo not drawn) | 0.0842%
CCc1[nH]nc2c1C(c1ccncc1)C(C#N)=C(N)O2 (stereo not drawn) | -5.96%
